Measurements taken from PubChem BioAssay (NCI).
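Following 48 hours of exposure in 96-well plates, responses at five concentrations were used to interpolate endpoints linearly. GI50 marks 50% less growth.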 For part of its entries the source gives two or more results. This list holds those alone. The source may hold further records. For some assays here: Values given together are repeats (runs, samples, wells, individuals or studies). A tag in brackets gives the origin of a value. A, B and so on number the origins entry by entry.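 TGI: total growth inhibition.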 For some assays here: The tests behind the records often covered other concentration ranges, which the source does not state; a value can be the end of its range.

How the values were obtained:
Test in all cases: inhibition of tumour cell growth, NCI panel, 48 h
OVCAR-3 ovarian = test system: OVCAR-3 ovarian
NCI/ADR-RES ovarian = test system: NCI/ADR-RES ovarian
MALME-3M melanoma = test system: MALME-3M melanoma
HT29 colon = test system: HT29 colon
SF-539 CNS = test system: SF-539 CNS
SK-OV-3 ovarian = test system: SK-OV-3 ovarian
NCI-H460 lung = test system: NCI-H460 lung
DU-145 prostate = test system: DU-145 prostate
HOP-92 NSCLC = test system: HOP-92 NSCLC
U251 CNS = test system: U251 CNS
RPMI-8226 leukemia = test system: RPMI-8226 leukemia
SF-295 CNS = test system: SF-295 CNS
HCT-15 colon = test system: HCT-15 colon

Row | Structure (SMILES) | TGI (OVCAR-3 ovarian) | TGI (NCI/ADR-RES ovarian) | TGI (MALME-3M melanoma) | TGI (HT29 colon) | TGI (SF-539 CNS) | TGI (SK-OV-3 ovarian) | TGI (NCI-H460 lung) | GI50 (DU-145 prostate) | TGI (HOP-92 NSCLC) | TGI (U251 CNS) | TGI (RPMI-8226 leukemia) | TGI (SF-295 CNS) | TGI (HCT-15 colon)
1 | Cc1c2ccccc2c(C)n2c1nc1cc(Cl)c(Cl)cc12 | 307 nM and 98.6 µM | 314 nM and > 100 µM | 315 nM and > 100 µM |  |  |  |  |  |  |  |  |  | 
2 | COC(=O)Nc1nc2ccc(C(=O)c3cccs3)cc2[nH]1 | 3.37 µM [sample A, mean of 4 tests] and 296 nM [sample B, 1 test] |  |  | 895 nM [sample A] and > 100 µM [sample B] | 489 nM [sample A, mean of 3 tests] and > 100 µM [sample B, 1 test] | 7.55 µM [sample A] and > 100 µM [sample B] | 9.39 µM [sample A] and > 100 µM [sample B] | 24.3 nM [sample A, mean of 4 tests] and 312 nM [sample B, mean of 2 tests] | 7.95 µM [sample A] and > 100 µM [sample B] | 2.03 µM [sample A] and > 100 µM [sample B] | 5.85 µM [sample A] and > 100 µM [sample B] | 34.3 nM [sample A] and > 100 µM [sample B] | 2.47 µM [sample A] and > 100 µM [sample B]
